Data: PubChem BioAssay AID624417 (National Center for Advancing Translational Sciences (NCATS), 2012)
About 6,400 (1.6%) of roughly 410,000 compounds were called active. Inconclusive means that the source gave no clear call. Such entries were picked first, then a sample of the others. Calls come from the whole dose curve; as a rule, active = well fitted inhibition curve with a large enough effect; inconclusive = small, poorly fitted or top-dose-only effect; inactive = no such curve, though single readings can be large or run the other way. Where the call is inconclusive, the potency comes from a doubtful curve fit.

Target: Glucagon-like peptide 1 receptor (Homo sapiens) (UniProt P43220)
Experiment: qHTS of GLP-1 Receptor Inverse Agonists (Inhibition Mode); note: nearly all actives have a fitted effect of over 55% in size
Conditions: HEK293 GLP-1R CRE-luciferase, luminescence, 24 h, GLP-1R form is constitutively active; activity change, negative = inhibition: at 38.3 µM (top of the series) unless noted
How it was run: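 Inverse agonists were sought by their lowering of basal cAMP reporter luciferase output in HEK293 cells stably carrying constitutively active human GLP-1R, after 24 h compound treatment.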
% is set by controls: 0 for no effect and ±100 for the full control effect; potency is the fitted concentration of half-maximal effect; tags give direction and shape of the fitted curve.

UniProt P43220, sequence (P43220 whole entry, looked up): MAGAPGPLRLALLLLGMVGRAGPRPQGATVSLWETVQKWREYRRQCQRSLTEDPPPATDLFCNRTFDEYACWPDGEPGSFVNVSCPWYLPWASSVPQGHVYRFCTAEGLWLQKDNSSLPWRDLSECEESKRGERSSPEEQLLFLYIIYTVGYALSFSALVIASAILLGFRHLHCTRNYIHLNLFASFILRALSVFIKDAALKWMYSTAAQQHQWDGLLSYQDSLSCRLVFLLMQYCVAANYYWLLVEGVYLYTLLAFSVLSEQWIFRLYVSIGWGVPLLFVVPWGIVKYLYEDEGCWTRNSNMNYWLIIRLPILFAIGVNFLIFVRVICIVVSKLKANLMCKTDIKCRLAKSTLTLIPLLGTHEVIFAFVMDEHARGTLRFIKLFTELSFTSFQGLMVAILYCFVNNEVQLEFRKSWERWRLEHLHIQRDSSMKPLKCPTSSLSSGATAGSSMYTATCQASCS

Potency, active:
O=C(Nc1ccc(F)cc1F)N1CCN(c2ccc(Cl)c(Cl)c2)CC1 11.2 µM
COc1ccc2cc(Br)ccc2c1CC(=O)NC(C)(C)C 12.6 µM

Potency, inactive:
COc1ccc(-c2cc(C(=O)O)c3c(C)nn(-c4ccccn4)c3n2)cc1
CCCN(CC(=O)Nc1ccccc1C)C(=O)c1cc(=O)[nH]c2ccccc12
CC1CCN(S(=O)(=O)c2ccc3[nH]ccc3c2)CC1
COCCNC(=O)CSc1nc(-c2ccc(OC)c(OC)c2)cc(C(F)(F)F)n1
Cc1cnc(NC(=O)C2CCC(C(C)(C)C)CC2)s1 (stereo not given)
CCCc1cnc2c(c1SCC(=O)Nc1ccccc1F)c(=O)n(C)c(=O)n2C
Cc1ccccc1C(=O)NC(=S)Nc1ccc(S(=O)(=O)N2CCN(C)CC2)cc1

Potency, inconclusive:
Cn1cc(CCCC(=O)NCc2ccc(F)cc2)c2ccccc21 22.4 µM [inhibitor, single point]
COc1ccc(Nc2cc(C(=O)NCCCN3CCN(C)CC3)c3ccccc3n2)c(OC)c1 14.1 µM [inhibitor, single point]
CCOc1ccc(-c2cc3nc(C4CCN(C(=O)OC(C)(C)C)CC4)c(C(=O)Nc4cccc(Cl)c4C)cn3n2)cc1 11.2 µM [inhibitor, partial curve, poor fit]
Cc1c(NC(=O)c2cc(-c3ccc(F)cc3)nc3ccccc23)c(=O)n(-c2ccccc2)n1C 31.6 µM [inhibitor, partial curve, poor fit]
COc1ccccc1CNC(=O)CNC(=O)c1sc2ccccc2c1Cl 28.2 µM [inhibitor, single point]
CC(C)C[C@H](NC(=O)c1nc[nH]c1C(=O)NC1CCN(C(=O)OC(C)(C)C)CC1)C(=O)OCc1ccccc1 11.2 µM [inhibitor, partial curve, poor fit]
COc1cc(/C=C/[N+](=O)[O-])ccc1OCc1cccc(C(=O)O)c1 2.51 µM [inhibitor, full curve, poor fit]
Cc1ccc(C)c(N2CCN(S(=O)(=O)c3ccc4c(c3)OCCO4)CC2)c1 22.4 µM [inhibitor, single point]
COc1cc(Nc2ncc3c(n2)CCN(Cc2cc(F)cc(F)c2)C3)cc(OC)c1 8.91 µM [inhibitor, partial curve, poor fit]
COc1ccc(CN2CCN(C(=O)CCC(=O)Nc3nnc(C4CCCCC4)s3)CC2)cc1F 8.91 µM [inhibitor, partial curve, poor fit]
CCOC(=O)CS(=O)(=O)c1nc(-c2ccc(F)cc2)cc(C(F)(F)F)n1 28.2 µM [inhibitor, single point]
Cc1ccc(C2C=C(c3ccc(Cl)cc3)Nc3nc(NC(=O)c4ccco4)nn32)cc1 (stereo not given) 10 µM [inhibitor, single point]
O=C(CN1CCN(S(=O)(=O)c2ccc(F)c(Cl)c2)CC1)N1CCc2ccccc21 11.2 µM [inhibitor, single point]
COc1ccc(N2C(=O)N(Cc3ccc(C)cc3)c3ccccc3S2(=O)=O)cc1 11.2 µM [inhibitor, partial curve, poor fit]
Cc1nc2ccc(S(=O)(=O)Nc3cc(-c4nc5cccnc5s4)ccc3C)cc2s1 8.91 µM [inhibitor, partial curve, poor fit]
Cc1cccc(C)c1NC(=S)NC(=O)CCc1ccccc1 28.2 µM [inhibitor, single point]
CCOc1ccc(C(c2c(O)cc(C)n(Cc3ccco3)c2=O)N2CCN(c3ccccc3)CC2)cc1 (stereo not given) 17.8 µM [inhibitor, partial curve, poor fit]
O=C(c1cccc(Oc2ccccc2)c1)N1CCN(c2ccccn2)CC1 15.8 µM [inhibitor, partial curve, poor fit]
Cc1ccc(S(=O)(=O)c2nc(-c3ccccc3Br)oc2N(C)C)cc1 7.08 µM [inhibitor, partial curve, poor fit]
C=C(C)c1cccc(C(C)(C)NC(=O)Nc2cc(C)ccc2OC)c1 5.01 µM [inhibitor, full curve]
CC(C(=O)Nc1ccc(F)c(F)c1F)N(C)CC(=O)Nc1ccccc1Br (stereo not given) 12.6 µM [inhibitor, single point]
CCC(C)n1c(SCC(=O)NC(=O)Nc2ccc3c(c2)OCCO3)nc2ccccc2c1=O (stereo not given) 20 µM [inhibitor, single point]
N#Cc1c(N2CCSCC2)nsc1-c1ccccc1Cl 5.62 µM [inhibitor, full curve, poor fit]
CCOC(=O)C1(CCCc2ccccc2)CCN(Cc2cnc(C)s2)CC1 12.6 µM [inhibitor, partial curve, poor fit]
Cc1cccc(CNC(=O)C2CCN(S(=O)(=O)c3ccc4c(c3)CCCN4C(=O)C3CCC3)CC2)c1 14.1 µM [inhibitor, single point]
CNc1cncc(-c2ccc(CN(C)C)cc2)n1 28.2 µM [inhibitor, single point]
CN(Cc1cccc2cnccc12)C(=O)c1cc(COc2ccc(F)cc2F)on1 11.2 µM [inhibitor, partial curve, poor fit]
FC(F)(F)c1nc(NCC2CCCO2)c2nnn(Cc3ccccc3Cl)c2n1 (stereo not given) 7.08 µM [inhibitor, partial curve, poor fit]
Cn1nnnc1SCCCNCc1cc(Cl)ccc1OCc1ccccc1F 28.2 µM [inhibitor, single point]
COc1ccccc1NC(=O)c1ccc(NC(=O)COC(=O)C2(C)CC2(Cl)Cl)cc1 (stereo not given) 22.4 µM [inhibitor, partial curve, poor fit]

Activity change, negative = inhibition, inconclusive:
Cn1cc(CCCC(=O)NCc2ccc(F)cc2)c2ccccc21 -70.5% [inhibitor]
